Measurements taken from article PMC8536713.
Where two headings read alike, the source gives them in different places. These are yes or no findings as the source states them, for the method shown. In cells and extracts the contact can be indirect. Some binding calls cover weakened binding; strength is not graded here. For part of these data: Sequences can lack the tags named with a protein.

Chains of the proteins cited; added tags and fusions are not shown.
UniProt P14126: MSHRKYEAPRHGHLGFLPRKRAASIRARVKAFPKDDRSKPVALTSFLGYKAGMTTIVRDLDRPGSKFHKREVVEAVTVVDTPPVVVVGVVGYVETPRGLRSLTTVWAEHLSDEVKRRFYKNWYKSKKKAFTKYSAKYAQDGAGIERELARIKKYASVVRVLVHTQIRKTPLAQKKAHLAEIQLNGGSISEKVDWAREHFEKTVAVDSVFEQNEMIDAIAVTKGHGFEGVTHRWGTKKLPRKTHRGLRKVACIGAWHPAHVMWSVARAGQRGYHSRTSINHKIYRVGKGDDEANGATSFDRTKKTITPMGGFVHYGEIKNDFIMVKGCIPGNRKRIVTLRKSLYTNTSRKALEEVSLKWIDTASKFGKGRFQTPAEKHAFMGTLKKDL

T1: Dbp7-TAP (S. cerevisiae) (UniProt P36120)
T1 sequence: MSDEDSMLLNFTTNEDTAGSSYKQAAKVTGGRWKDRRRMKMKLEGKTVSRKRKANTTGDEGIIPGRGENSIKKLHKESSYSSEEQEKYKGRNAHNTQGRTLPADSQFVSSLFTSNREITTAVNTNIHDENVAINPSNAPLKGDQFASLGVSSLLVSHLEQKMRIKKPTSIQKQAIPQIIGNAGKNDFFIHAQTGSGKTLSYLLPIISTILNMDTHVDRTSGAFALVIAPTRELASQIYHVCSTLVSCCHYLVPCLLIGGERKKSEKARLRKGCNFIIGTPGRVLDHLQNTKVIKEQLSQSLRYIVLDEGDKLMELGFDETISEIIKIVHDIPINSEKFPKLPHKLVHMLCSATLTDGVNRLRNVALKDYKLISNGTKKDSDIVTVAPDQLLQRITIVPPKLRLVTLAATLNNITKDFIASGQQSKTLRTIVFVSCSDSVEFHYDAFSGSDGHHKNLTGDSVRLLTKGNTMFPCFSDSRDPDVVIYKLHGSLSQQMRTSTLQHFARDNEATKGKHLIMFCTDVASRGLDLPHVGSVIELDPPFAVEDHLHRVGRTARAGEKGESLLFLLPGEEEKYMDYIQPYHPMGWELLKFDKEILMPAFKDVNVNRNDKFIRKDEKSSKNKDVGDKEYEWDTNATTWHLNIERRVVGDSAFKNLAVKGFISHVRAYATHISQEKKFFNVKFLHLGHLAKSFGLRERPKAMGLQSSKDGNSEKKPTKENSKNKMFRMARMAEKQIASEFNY

T2: Nop2-TAP (S. cerevisiae) (UniProt P40991)
T2 sequence: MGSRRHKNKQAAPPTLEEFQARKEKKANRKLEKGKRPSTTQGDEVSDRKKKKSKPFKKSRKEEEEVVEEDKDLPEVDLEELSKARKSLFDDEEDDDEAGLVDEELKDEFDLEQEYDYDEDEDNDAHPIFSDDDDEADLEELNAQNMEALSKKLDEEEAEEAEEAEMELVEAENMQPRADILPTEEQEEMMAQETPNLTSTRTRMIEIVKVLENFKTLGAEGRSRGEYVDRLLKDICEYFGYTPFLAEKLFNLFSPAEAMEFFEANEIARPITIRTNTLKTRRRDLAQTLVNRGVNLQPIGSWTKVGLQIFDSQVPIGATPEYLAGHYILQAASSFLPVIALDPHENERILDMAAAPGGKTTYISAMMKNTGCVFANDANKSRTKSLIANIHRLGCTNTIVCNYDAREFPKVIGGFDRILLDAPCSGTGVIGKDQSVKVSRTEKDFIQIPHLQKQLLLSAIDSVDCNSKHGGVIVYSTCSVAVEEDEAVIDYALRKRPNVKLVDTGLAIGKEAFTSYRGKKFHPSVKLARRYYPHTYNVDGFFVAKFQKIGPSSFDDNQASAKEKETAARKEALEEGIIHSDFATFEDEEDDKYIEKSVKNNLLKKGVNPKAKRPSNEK

B1: Cic1-HA (protein, UniProt P38779 1-376)
chain: MAKKSNSKKSTPVSTPSKEKKKVIEKKSSTAIPRERVIKAVNELIKFTSKPQDENNEEGNNGKKNLLEDDEEELKKDLQLIVVNNKSFTGTSKSFKLKLLNVKHSFYKPWKEASATAVKDFKVLLILKDSDIKKVSEDDLFDQLDSEGIKVDEIICGKDLKTVYKAYEARNAFISQFSLILADDSIVTSLPKLMGGKAYNKVETTPISIRTHANKEFSLTTLTNNIKKVYMNQLPVKLPRGTTLNVHLGNLEWLRPEEFVDNVELISEQLIKAYQIRSIFIKTNRSPVLPLYYNQDVLDELEAKKDKIEETHEDDMVTIDGVQVHLSTFNKGLMEIANPSELGSIFSKQINNAKKRSSSELEKESSESEAVKKAKS

Assays:
Dbp7-TAP (S. cerevisiae) = molecular target: T1, Dbp7-TAP (S. cerevisiae); experiment: pull-down; Dbp7-TAP captured from whole-cell lysate on IgG sepharose, input and eluate by western blotting with antibodies against endogenous r-proteins; co-purified pre-ribosomal particles
Nop2-TAP (S. cerevisiae) [1] = molecular target: T2, Nop2-TAP (S. cerevisiae); experiment: pull-down; Nop2-TAP particles isolated on IgG sepharose from strains of the Dbp7 complementation system (WT + EV, Δdbp7 + EV, + Dbp7WT, + Dbp7DQGD), TEV elution, western blotting of input and eluate
Nop2-TAP (S. cerevisiae) [2] = molecular target: T2, Nop2-TAP (S. cerevisiae); experiment: as above; remark: listed apart in the source

Molecule	binding (Dbp7-TAP (S. cerevisiae))	binding (Nop2-TAP (S. cerevisiae) [1])	binding (Nop2-TAP (S. cerevisiae) [2])
uL3 (from UniProt P14126 1-387)	binds	binds	–
B1	–	–	binds
